Test results taken from PubChem BioAssay AID686970 (National Center for Advancing Translational Sciences (NCATS), 2013).
Out of some 360,000 compounds screened, about 6,000 (1.7%) were called active. This list was built around the results that the source calls inconclusive (neither active nor inactive); the mix of calls is not that of the screen. Calls follow the shape of the dose curve; as a rule, active = well fitted cell-killing curve with a large enough effect; inconclusive = small, poorly fitted or top-dose-only effect, or effect the other way; inactive = flat fitted curve, though single readings scatter. No potency is given beside an inconclusive call; the fits are too rough.

Assay: qHTS for induction of synthetic lethality in tumor cells producing 2HG: qHTS for the HT-1080-NT fibrosarcoma cell line;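 also: NT is the 2HG producing partner of a matched IDH1 knockdown line; nearly all actives have a fitted effect of over 55% in size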;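 as to activity, negative = less viability: 0% = DMSO-treated cells and -100% = media-only wells without cells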
Details: HT-1080-NT fibrosarcoma viability, CellTiter-Glo ATP luminescence, 48 h; activity, negative = less viability: at 46.1 µM (top of the series) unless noted
Method in brief: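 Viability by CellTiter-Glo luminescence after 48 h compound exposure at 37C of HT-1080-NT cells (750/well, RPMI, 5% FBS). % activity scaled between DMSO wells and medium-only wells, then curve-fitted and categorized by curve class.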
Potency is read from the fitted curve at half-maximal effect; tags tell the direction and shape of the fitted curve.

**Q.** Which Potency does the source give for `CC(=O)Nc1ccc(Sc2ccc([N+](=O)[O-])o2)cc1` here?
**A.** Its Potency is active: 4.11 µM.

**Q.** With `Cc1ccc(SCc2cn3c(C)csc3n2)cc1` as the compound, how does the Potency read?
**A.** The Potency was active: 35.5 µM.

**Q.** Which Potency does the source give for `COc1cccc(CNC(=O)COC(=O)c2ccc(-c3ccc(O)cc3)cc2)c1` here?
**A.** The Potency was inconclusive [cytotoxic, single point].

**Q.** Which “activity, negative = less viability” value does the source give for `O=C(OCc1cccc([N+](=O)[O-])c1)c1ccc[nH]c1=O` here?
**A.** Its value is inactive: 25.9%.

**Q.** For `Cc1[nH]c2ccccc2c1C(=O)CN1CCN(C/C=C/c2ccccc2)CC1`, which Potency is on record?
**A.** Its Potency is active: 23.1 µM.

**Q.** With `COc1ccc(/C=N/NC(=O)CCn2cnc(-c3ccccc3)c2-c2ccccc2)cc1` as the compound, how does the Potency read?
**A.** Its Potency is active: 3.26 µM.

**Q.** With `CCCn1c(=O)c(C(=O)NNS(=O)(=O)c2ccc(C)cc2)c(O)c2ccccc21` as the compound, how does the Potency read?
**A.** The Potency was inconclusive [cytotoxic, single point].

**Q.** With `O=C(/C=C/c1cccc(Cl)c1)c1ccc([N+](=O)[O-])o1` as the compound, how does the Potency read?
**A.** Its Potency is inconclusive [cytotoxic, full curve].

**Q.** With `Cc1ccc(-c2nc3ccc(C)cn3c2Cc2cccc(F)c2)cc1` as the compound, how does the Potency read?
**A.** The Potency was inconclusive [cytotoxic, single point].

**Q.** For `Nc1c(NCCN2CCCCC2)c2ccccc2oc1=O`, which “activity, negative = less viability” value is on record?
**A.** Its value is inactive: -8.87%.

**Q.** With `COc1ccc(-n2cc(CNC3CCN(C)CC3)c(-c3cccc(F)c3)n2)cc1` as the compound, how does the Potency read?
**A.** The Potency was active: 20.6 µM.

**Q.** With `CCOC(=O)C1=C(c2ccccc2)NC(N)=NC1c1ccc(OCc2ccc(C(=O)OC)cc2)cc1` (stereo unspecified) as the compound, how does the Potency read?
**A.** Its Potency is active: 23.1 µM.

**Q.** With `COc1ccc2c(c1)CC(N1CCN(C)CC1)c1cc(OC)ccc1S2` (stereo unspecified) as the compound, how does the Potency read?
**A.** The Potency was inconclusive [cytotoxic, single point].

**Q.** With `O=C(c1ccc(COc2ccc(Cl)cc2)o1)N1N=C(C(F)F)CC1(O)C(F)F` (stereo unspecified) as the compound, how does the Potency read?
**A.** Its Potency is inconclusive [cytotoxic, partial curve].

**Q.** Which “activity, negative = less viability” value does the source give for `COc1cccc(NC(=O)c2ccc(-c3ccccc3[N+](=O)[O-])o2)c1` here?
**A.** Its value is inactive: -5.64%.

**Q.** Which “activity, negative = less viability” value does the source give for `O=C(CCC(=O)Nc1ccc(F)cc1)N/N=C/c1ccc(Br)cc1` here?
**A.** Its value is inactive: -3.6%.

**Q.** With `C#CCOCCOCCOCCNc1nc(N2CCN(C(=O)CCCCCCCCCCNC(=O)[C@H](CCCCN)n3cc(C[C@@H](C)CC)nn3)CC2)nc(N2CCN(C(=O)CCCCCCCCCCNC(=O)[C@H](CCCCN)n3cc(C[C@@H](C)CC)nn3)CC2)n1` as the compound, how does the Potency read?
**A.** Its Potency is inconclusive [cytotoxic, single point].

**Q.** Which “activity, negative = less viability” value does the source give for `Cc1cc(C)c(S(=O)(=O)N2CCOC2CNC(=O)C(=O)NCc2cccnc2)c(C)c1` (stereo unspecified) here?
**A.** Its value is inactive: 12.8%.

**Q.** Which Potency does the source give for `CC(=O)c1ccccc1C(=O)N1CCCC(CNC(=O)c2ccccc2Cl)C1` (stereo unspecified) here?
**A.** Its Potency is inconclusive [rising, single point].

**Q.** Which activity, negative = less viability does the source give for `CCOc1ccc(C(=O)/C=C/c2cc(OC)c(OC)c(OC)c2)cc1` here?
**A.** The activity, negative = less viability was inconclusive: -34.5%.

**Q.** With `Cc1cccc(NC(=O)c2cc(=O)c3ccccc3o2)n1` as the compound, how does the “activity, negative = less viability” value read?
**A.** Its value is inactive: -0.903%.

**Q.** For `CC(=O)Cn1cnc2c(sc3nc(C)cc(C)c32)c1=O`, which Potency is on record?
**A.** The Potency was inconclusive [rising, single point].

**Q.** With `c1ccc2ncc(-n3ccnc3)cc2c1` as the compound, how does the Potency read?
**A.** The Potency was inconclusive [rising, partial curve].

**Q.** With `CCCC(=O)NC(c1cccc([N+](=O)[O-])c1)c1ccc2cccnc2c1O` (stereo unspecified) as the compound, how does the Potency read?
**A.** The Potency was inconclusive [cytotoxic, full curve].

**Q.** With `Cc1ccc(S(=O)(=O)N2[C@H](CC(=O)c3ccc(Cl)c(Cl)c3)OC[C@@H]2C)cc1` as the compound, how does the Potency read?
**A.** The Potency was inconclusive [cytotoxic, single point].

**Q.** Which Potency does the source give for `COc1ccc2c(c1)C(C)=CC(C)(C)N2S(=O)(=O)c1ccc(C)cc1` here?
**A.** The Potency was active: 0.92 µM.

**Q.** Which Potency does the source give for `CCn1nc(C)cc1C(=O)Sc1cccc(Br)c1` here?
**A.** The Potency was active: 13 µM.

**Q.** Which Potency does the source give for `COc1ccc(OC)c(-c2cc(C(=O)N3CCCc4ccccc43)no2)c1` here?
**A.** Its Potency is inconclusive [cytotoxic, single point].

**Q.** With `OC(c1ccc(F)c(F)c1)c1nc(-c2cc(F)cc(F)c2)cs1` (stereo unspecified) as the compound, how does the Potency read?
**A.** Its Potency is inconclusive [cytotoxic, single point].

**Q.** For `COc1ccc(-c2csc(NC(=O)C3CSC4(C)CCC(=O)N34)n2)c(OC)c1` (stereo unspecified), which “activity, negative = less viability” value is on record?
**A.** The value was inactive: -6.47%.

**Q.** For `O=C(O)C(c1ccccc1)N1C(=O)/C(=C/c2cccs2)SC1=S` (stereo unspecified), which “activity, negative = less viability” value is on record?
**A.** Its value is inactive: 24.6%.

**Q.** With `CCCc1nnc(SCC(=O)Nc2ccc(C(=O)OCC)cc2)o1` as the compound, how does the activity, negative = less viability read?
**A.** Its activity, negative = less viability is inconclusive: -14.6% [cytotoxic].

**Q.** For `O=C(Nc1cccnc1)C1Cc2c(-c3ccccc3Oc3ccccc3)ccnc2O1` (stereo unspecified), which Potency is on record?
**A.** Its Potency is inconclusive [cytotoxic, single point].

**Q.** For `CCc1cc(=O)n2[nH]c(-c3ccccc3)c(-c3ccccc3)c2n1`, which Potency is on record?
**A.** Its Potency is inconclusive [cytotoxic, partial curve].

**Q.** For `O=C(CSc1nc(-c2cccs2)cc(C(F)(F)F)n1)Nc1cc(OCC(F)(F)F)cc([N+](=O)[O-])c1`, which Potency is on record?
**A.** The Potency was inconclusive [cytotoxic, partial curve].

**Q.** Which Potency does the source give for `N/C(=N\c1nc(CSc2ccccn2)cc(=O)[nH]1)Nc1ccc(Cl)cc1Cl` here?
**A.** Its Potency is inconclusive [cytotoxic, single point].

**Q.** For `Cc1nn(C)c(C)c1CN(C)C(=O)C1(C)CC1(Br)Br` (stereo unspecified), which Potency is on record?
**A.** The Potency was inconclusive [rising, single point].

**Q.** With `COc1ccc(C(CNC(=O)COc2ccc(C)c(C)c2)N2CCCCC2)cc1` (stereo unspecified) as the compound, how does the “activity, negative = less viability” value read?
**A.** The value was inactive: -13.4%.

**Q.** For `Cc1ccc2c(c1)C(=O)C(=O)N2CCOc1ccccc1`, which Potency is on record?
**A.** The Potency was active: 7.31 µM.

**Q.** For `O=C(CCN1CCC(c2ccccc2)C1)c1ccc2c(c1)OCCO2` (stereo unspecified), which Potency is on record?
**A.** Its Potency is active: 4.61 µM.

**Q.** With `O=C1COCC(=O)N1CCc1c[nH]c2ccccc12` as the compound, how does the Potency read?
**A.** The Potency was inconclusive [rising, full curve].

**Q.** Which Potency does the source give for `COc1cccc2sc(N(CCCN(C)C)C(=O)CCS(=O)(=O)c3ccccc3)nc12` here?
**A.** Its Potency is inconclusive [cytotoxic, single point].

**Q.** Which Potency does the source give for `C=CCc1cc(Cl)ccc1OCCOCCNC(C)CC` (stereo unspecified) here?
**A.** Its Potency is active: 16.4 µM.

**Q.** Which “activity, negative = less viability” value does the source give for `CCn1c(SCC(=O)N(C)C)nc2cc(S(=O)(=O)N3CCCCC3)ccc21` here?
**A.** Its value is inactive: -5.25%.

**Q.** Which Potency does the source give for `O=C(Nc1cccc(S(=O)(=O)c2cccc(NC(=O)C3CC3)c2)c1)C1CC1` here?
**A.** The Potency was inconclusive [cytotoxic, single point].

**Q.** For `CCOc1ccc(-c2cc(C(=O)NCCCn3ccnc3)c3cc(Br)ccc3n2)cc1`, which Potency is on record?
**A.** The Potency was inconclusive [cytotoxic, single point].
